Reference: US7385023B1, “Cancer immunotherapy and diagnosis using cytochrome P450 1B1” (Trustees of Boston University, priority 2000, dated 2008)
Read-outs that look alike come from different tables or passages of the source.

Key:
HLA-A3 = HLA-A3 (Homo sapiens, UniProt P04439); test: Binding assay of peptides to T2 cells transfected with HLA-A3; details: for FI class I: PBS 15.3
[1] = target: HLA-A3 on T2 cells transfected with HLA-A3; test: peptide binding to T2 cells transfected with HLA-A3, class I staining
[2] = target: HLA-A3 on T2 cells transfected with HLA-A3
[3] = target: HLA-A3 on T2 cells transfected with HLA-A3; test: peptide binding to T2 cells transfected with HLA-A3, class I staining (PBS background 15.3)

FLDKDGLINK [CYP445] was tested, and the FI (HLA-A3) was 0.27, the “binding to HLA-A3” value (HLA-A3) was “repeatedly bound to HLA-A3” and the “FI class I” value (HLA-A3) was 19.5.

Work on Flu-MP58 (peptide) yielded an FI [1] of 1.27 and an FI class I [2] of 34.8.

With GLINKDLTSR [CYP450] the FI (HLA-A3) was 0.10 and the “FI class I” value (HLA-A3) was 16.8.

In the case of GLTIKPKSFK [CYP508], the FI (HLA-A3) is reported as 0.07 and the “FI class I” value (HLA-A3) is reported as 16.4.

SMMRNFFTR [CYP150] was tested, and the FI (HLA-A3) was 0.12, the “binding to HLA-A3” value (HLA-A3) was “repeatedly bound to HLA-A3” and the “FI class I” value (HLA-A3) was 17.2.

In the case of SVLGYHIPK [CYP408], the FI (HLA-A3) is reported as 0.10, the “binding to HLA-A3” value (HLA-A3) is reported as “repeatedly bound to HLA-A3” and the “FI class I” value (HLA-A3) is reported as 16.9.

B1: CYP508 peptide from cytochrome P450 1B1 (…) (peptide)
peptide: GLTIKPKSFK
Work on B1 yielded an FI class I [3] of 16.4 and an FI [1] of 0.07.

B2: CYP408 peptide from cytochrome P450 1B1 (…) (peptide)
peptide: SVLGYHIPK
With B2 the FI class I [3] was 16.9 and the FI [1] was 0.1.

B3: CYP445 peptide from cytochrome P450 1B1 (…) (peptide)
peptide: FLDKDGLINK
Work on B3 yielded an FI class I [3] of 19.5 and an FI [1] of 0.27.

B4: CYP450 peptide from cytochrome P450 1B1 (…) (peptide)
peptide: GLINKDLTSR
B4 showed an FI class I [3] of 16.8 and an FI [1] of 0.1.

B5: CYP150 peptide from cytochrome P450 1B1 (…) (peptide)
peptide: SMMRNFFTR
For B5, the FI class I [3] was 17.2 and the FI [1] was 0.12.
